Where two headings read alike, the source gives them in different places.

Data set [1] concerns potassium channels of the membrane. Nature of the data set: blocking of potassium currents in an electroexcitable membrane. The following applies: for inhibition of K^+ current upon prolonging the test voltage pulse: pulse prolonged from 10 msec to 1 sec. It counts as cell-based. The text has this:
This effect is characteristic of a known inhibitor of potassium channels of the membrane--4-aminopyridine.

Data set [2] is described as follows: carcinogenic, mutagenous, teratogenous, embryotoxic effects.
For another data set, the system named is rats. Nature of the data set: training of rats in a T-shaped labyrinth. It counts as in vivo.
The subject of another data set is musculus gastrocnemius. Nature of the data set: rabbit's sciatic nerve (in situ), contractions of musculus gastrocnemius. Type of data set: in vivo. From the text:
(§1) Thus, there has been studied the effect of the medicated composition of the present invention on neuro-muscular transmission in experiments on a rat's phrenico-diaphragmatic preparation, musculus rectus abdominis of the frog, and rabbit's sciatic nerve.

Data set [3] relates to neuro-muscular synapses (n.peroneusm.extensor digitorumlongus). Nature of the data set: miniature end plate potentials on neuro-muscular synapses. Also on record: species or system mice. On the procedure:
The effect on miniature end plate potentials (EPP) has been studied on neuro-muscular synapses (n.peroneusm.extensor digitorumlongus).
The following parameters of the end plate potentials are measured: frequency (f), amplitude (A) and duration (t).
In the control preparations the parameters of miniature end plate potentials are as follows: f=3.0 l/sec, A=0.6 mV, t=0.3 msec.

The next data set is described as follows: acute toxicity in rats. The following applies: rat, in vivo, sc, hypodermally.
The subject of data set [4] is rat's phrenico-diaphragmatic preparation. The data set is described as follows: neuro-muscular transmission, rat's phrenico-diaphragmatic preparation. The following applies: for activation at 0.1 µM: Rattus norvegicus, read-out: increase in the amplitude of the diaphragm contractions. On the procedure:
as §1
Experiments are carried out on phrenico-diaphragmal preparations obtained from male rats weighing 200 g. From the diaphragm two muscular strips are cut of 5-8 mm width with appropriate nerves of 20 mm length. The preparation is placed into a bath with an aerated Tyrode solution with a double content of glucose at a temperature of 20° C., and the pH of the solution is brought to 7.3. The nerve is placed on two silver electrodes through which the muscle preparation is stimulated.
The stimulation parameters are square pulses with a duration of 1 msec, groups of 10 pulses with an interval of 2 seconds therebetween and 1 minute intervals between the groups at a voltage of 12-15 V.

Data set [5] has as its target T1, serum butyrylcholinesterase (BuCE) (Homo sapiens, UniProt P06276).
T1 construct: serum butyrylcholinesterase (BuCE); from tissue
The data set is described as follows: inhibition of purified serum butyrylcholinesterase. It counts as biochemical. Particulars: for Ki: read-out: inhibition constant Ki relative to BuCE.

Data set [6] is classed as physicochemical. On the procedure:
1-Amino-2-cyanocyclopentene-1, cyclohexanone, polyphosphoric acid and dry benzene are stirred upon boiling for two hours. After cooling the reaction mass is diluted with water and extracted with ether. The ethereal extract is discarded. The aqueous layer is neutralized to the pH of 7. The precipitate is filtered-off and several times washed with water on the filter. After separation of the precipitate the aqueous layer is combined with the washings and alkalinized with ammonia to a pH of 9-10. The resulting precipitate of 9-amino-2,3,5,6,7,8-hexahydro-1H-cyclopenta(b)quinoline is filtered-off and washed, then dissolved in 20 ml of ethanol and the ethanolic solution is treated by passing therein gaseous hydrogen chloride at a temperature within the range of from 5° to 25° C. to a pH of 3. The thus-obtained salt is precipitated by ethyl ether, the precipitate is reprecipitated from ethanol by ether.

Data set [7] concerns uterus, vas deferens and the intestine of rats. The data set is described as follows: contractile activity of smooth-muscle strips (uterus, vas deferens, intestine). How it is done:
Animals are slaughtered by decapitation, the peritoneal cavity is opened, the smooth-muscle organ is cut out and transferred into a vessel containing a physiological solution. A strip of 15×2 mm is cut from the organ, silk threads are secured to the strip ends and the muscle preparation is placed into a testing unit chamber. The contractile activity of the muscle is recorded under isometric conditions by means of a tensometer. The muscle is in a continuous flow of an aerated physiological solution. Spontaneous contractions are recorded and contractive responses to agonists (acetylcholine, oxytocin, adrenalin, serotonine, histamine, KCl).

In data set [8] the test system is mice. Nature of the data set: lethal dose of d-tubocurarine in mice, with and without pre-administration of the composition. Type of data set: in vivo. The following applies: test group. On the procedure:
(§2) It lowers toxicity of the latter. Thus, in experiments on mice there are determined medium lethal doses of d-tubocurarine in control and test groups which have been previously administered with the medicated composition of the present invention.

In data set [9] the test system is musculus rectus of a frog's abdomen. The data set is described as follows: acetylcholine contraction of musculus rectus abdominis of the frog. Particulars: for enhancement of the effect of acetylcholine compared with the composition: same conditions. How it is done:
as §1
The cut musculus rectus of a frog's abdomen is placed into a vessel with Ringer solution (pH=7.4) through which air is passed. The muscle contractions are recorded by a strain gauge. […] The effect occurs within 10-15 minutes and slowly diminishes upon the removal of the composition from the solution. 25 minutes after the removal the response to acetylcholine is still equal to 150% vs. the control value.

Another data set deals with rabbits. Nature of the data set: tubocurarine head drop in rabbits (anticuraric effect). Type of data set: in vivo. Particulars: intravenously 1.3, 2.6, 5.2 mg/kg after tubocurarine […] i.v. On the procedure: Tubocurarine in a dose of 0.25 mg/kg administered intravenously results in head drop in rabbits due to blocking of neuro-muscular transmission. […] The anticuraric effect lasts 30 to 40 minutes.

Data set [10] has as its system patients. Nature of the data set: clinical tolerance and side effects in patients. Type of data set: in vivo, human. The text has this:
It very rarely causes signs of M-cholinergic structures: intensified peristaltic of intestine, vomition, salivation (6 patients--1.8%). […] In 4 patients (1.2% there was noted bradicardia, in 2--increase of arterial pressure (passing)--0.6%, in 4 patients (1.2%)--allergic dermal eruption rapidly disappearing after completion of the treatment course. Low frequency and weak manifestation of side effects, good tolerance of the preparation enable a broad variation of its single and daily doses and, when required, to considerably increase the same.

The subject of data set [11] is patients. Nature of the data set: clinical efficiency in patients.
In another data set the test system is rat's sciatic nerve. The data set is described as follows: conductivity of excitation in rat's sciatic nerve blocked with KCl. The following applies: 1.10^-5 to 1.10^-7 M; KCl 5.10^-5 M. The text has this: Pulses are passed through a stimulant electrode and the second recording electrode registers the nerve action potentials in response to excitations.
The composition is applied in a concentration of from 1.10^-5 to 1.10^-7 M onto a limited length of the nerve between the electrodes. KCl in a concentration of 5.10^-5 M causes blocking of the conductivity.

Data set [12] relates to mice, rats, rabbits and dogs.
The nature of the next data set: acute toxicity in mice. The following applies: mouse, in vivo.
Data set [13] is described as follows: lethal dose of d-tubocurarine in mice, with and without pre-administration of the composition. Type of data set: in vivo. The following applies: mouse, in vivo, control group. How it is done:
as §2

The subject of data set [14] is mice. Particulars: subcutaneously injected in mice; cited from earlier work.
For data set [15] the following is noted: hypodermally injected; cited from earlier work.

Regarding `Nc1ccncc1` [4-aminopyridine, reference compound], the “inhibition of K^+ current upon prolonging the test voltage pulse” value in data set [1] is “disappears”.
For `Cl.Nc1c2c(nc3c1CCC3)CCCC2.O` [9-amino-2,3,5,6,7,8-hexahydro-1H-cyclopenta(b)quinoline monohydrate hydrochloride], in [2], the “carcinogenic, mutagenous, teratogenous or embryotoxic effects” value was “neither carcinogenic, mutagenous, teratogenous or embryotoxic effects”. Moreover, the “training in a T-shaped labyrinth” value with rats is listed as “facilitates training”. Besides, the “increase of the amplitude of contractions of the musculus gastrocnemius” value in the data set with musculus gastrocnemius (in response to the addition of acetylcholine) is on record as 50-78%. The “duration of the effect” value with musculus gastrocnemius (rabbit, in vivo) was “still observed one hour after addition”. In addition, the allergogenic effect result in the data set “allergogenic activity” is reported as “no allergogenic effect”. In addition, the “time after addition within which the effect on miniature EPP is detected” value in [3] was no more than 30 min. Besides, in data set [3] (concentration 10^-6 M), the “miniature end plate potentials amplitude (A)” value was 1.2 mV and the “miniature end plate potentials frequency (f)” value is 3.0 L/s. This molecule also gave a 50% lethal dose (LD50) in “acute toxicity in rats” of 60 mg/kg. Further, the activation at 0.1 µM in data set [4] is 74 to 80%. Also, the “contraction still increased after washing-off” value in [4] (one hour after the washing-off) is listed as 25%. Further, in data set [1], the “effect on the membrane potential without fixation of the potential” value was “pronounced extension of the potential of the membrane effect” and the “inhibition of K^+ current upon prolonging the test voltage pulse” value is “fully retained”. In data set [1] (concentration 1.10^-6 to 1.10^-5 M), the “blocking of potassium currents” value was 50-70%. Further, in data set [5], the “manner of inhibition of BuCE” value is recorded as “non-competitive manner” and the inhibition constant Ki came out at 5.6 nM. In addition, in data set [6], the “solubility in 95% ethanol” value was “slowly soluble”; the “solubility in acetone, ether, chloroform” value is listed as “substantially insoluble”; the “solubility in diluted solutions of acids” value is “readily soluble”; the solubility in water entry was “readily soluble”. The “stimulating effect detected after removal from the solution” value in [7] is no less than 40 min. Moreover, the “effect on contractive responses to agonists (acetylcholine, oxytocin, adrenalin, serotonine, histamine, KCl)” value in data set [7] (rat smooth-muscle strips) was “increases the amplitude of contractions in response to all agonists, except K^+”. Moreover, in the data set on mice [8], the “LD50 of d-tubocurarine after previous administration of the composition” value amounted to 0.69 mg/kg. For the same molecule, in data set [9], the “time within which the effect occurs” value lay within 10 to 15 min. The “response to acetylcholine vs. the control value after removal” value in data set [9] (25 minutes after the removal) came to 150%. Moreover, the “acetylcholine contraction superior to the control” value in data set [9] (acetylcholine 1.10^-6 M, preparation 1.10^-7 to 1.10^-6 M) is 180%. The “effect on tubocurarine head drop” value in the data set on rabbits was “recovery of the muscular tension”. For the same molecule, the patients with bradicardia in the data set on patients [10] (human, in vivo) came to 1.2%. For the same molecule, the “patients with allergic dermal eruption” value in the data set with patients [10] (rapidly disappearing after completion of the treatment course) came to 1.2%. Further, in the data set on patients [11] (administration of 10 mg), the “effect on weak delivering activity” value was determined as 96% and the “time after administration to increasing contractive activity of uterus” value is 10 min. This molecule also showed an improvement with patients [11] (disseminated sclerosis) of 60%. In the data set with patients [11] (myastenia), the improvement is reported as 92%. Also, in the data set with patients [11] (patients with neuritides and polyneuritides of infectional and traumatic etiology, subcutaneous), the improvement turned out to be 88%. Also, in the data set with patients [11] (radiculoneuritides of the discogenous origin), the improvement was 62%. In addition, the “effect on KCl blocking of nerve conductivity” value in the data set with rat's sciatic nerve is “removes this blocking and restores the conductivity of the nerve”. In addition, the signs observed result in data set [12] (higher doses) is “excitation of animals, tremor, signs of stimulation of M-cholinergic systems: hypersalivation, hyperperspiration, and diarrhea”. Besides, in data set [12] (in vivo), the “combination with apomorphine, phenamine and L-DOFA” value was “enhanced by the composition of the present invention only in high doses”; the combination with arecoline result is “potentiates the effects of arecoline”; the “effect on animal behavior” value is “does not change the animal behavior”; the “effect on the central nervous system” value is reported as “stimulating effect on the central nervous system”. Also, in data set [12] (toxic doses), the signs observed entry is “convulsions are developed”. This molecule also returned an LD50 in “acute toxicity in mice” (ip, single intraperitoneal administration) of 44 mg/kg. For the same molecule, the 50% lethal dose (LD50) in “acute toxicity in mice” (po, per os) was 68 mg/kg. The same molecule displayed a median lethal dose (LD50) in “acute toxicity in mice” (sc, hypodermally) of 52 mg/kg.
Molecule `COc1cc2c3cc1Oc1cc(ccc1O)C[C@@H]1c4c(cc(OC)c(O)c4Oc4ccc(cc4)C[C@@H]3N(C)CC2)CC[N+]1(C)C` [d-tubocurarine, reference compound] returned an LD50 in data set [13] of 0.29 mg/kg.
Consider `COc1ccc2c3c1O[C@H]1C[C@@H](O)C=C[C@@]31CCN(C)C2` [galantamine, reference compound], for which the activation at 0.1 µM in data set [4] was found to be 28%. For the same molecule, in data set [4] (similar concentration (1.10^-7 M)), the “time after beginning of washing at which effect disappears” value was 20 min. In the data set with mice [14], the LD50 is recorded as 14 mg/kg. For the same molecule, the “enhancement of the effect of acetylcholine compared with the composition” value in data set [9] was “less pronounced and shorter enhancement”. Moreover, in the data set with patients [10] (human, in vivo), the “M-cholinergic disturbances compared with proserin” value is given as “to a lesser extent”.
Turning to `CN(C)C(=O)Oc1cccc([N+](C)(C)C)c1` [proserin, reference compound], the inhibition constant (Ki) in data set [5] came to 150 nM. Besides, the LD50 in [15] is 0.4 mg/kg. For the same molecule, the “enhancement of the effect of acetylcholine compared with the composition” value in data set [9] was “less pronounced and shorter enhancement”. The “patients with signs of M-cholinergic structures: intensified peristaltic of intestine, vomition, salivation” value in the data set on patients [10] (human, in vivo) is 50%.

The term LD50 denotes the dose at which mortality reaches 50%. As usually defined, the Ki is a measure of affinity in units of concentration, obtained from inhibition or displacement.

Source of the values: patent US4550113A (priority 1984, dated 1985).
